Test [1] addresses EGFR C-terminally fused to mTurquoise2 (UniProt P00533). Kind of test: FRET or BRET; intensity-based FRET (FRET index), live HEK293T cells, 37 °C, confocal microscope; mTurquoise2 donor, YPet acceptor; plasma membrane regions only. (In general: Bioluminescence resonance energy transfer reports proximity on the nanometre scale.)
For test [2], the target named is AT1R wildtype coupled to mTurquoise2 (UniProt P30556). The description is as above.
Test [3] deals with EGFR C-terminally fused to mTurquoise2 (UniProt P00533). Briefly: FRET or BRET; FLIM-FRET: amplitude weighted average fluorescence lifetime of the mTurquoise2 donor (two-exponential fit), live HEK293T cells, plasma membrane regions.
Test [4] addresses AT1R wildtype coupled to mTurquoise2 (UniProt P30556). Described as above.
In test [5] the target is C-terminal EGFP-labelled EGFR (epidermal growth factor receptor) (UniProt P00533). Kind of test: co-IP; HA-AT1R and EGFR-EGFP expressed alone or together in HEK293T; lysis in 1% Triton X-100, 150 mmol/L NaCl, Tris pH 7.5; Dynabeads with anti-GFP (JL-8) or anti-HA antibody, overnight; Western blot with anti-HA. A general note: Immunoblotting shows a protein as a band on a membrane.

Test [6] deals with EGFR C-terminally fused to mTurquoise2 (UniProt P00533). Kind of test: FRET or BRET; intensity-based FRET (FRET index), live HEK293T cells, 37 °C, confocal microscope; mTurquoise2 donor, YPet acceptor; plasma membrane regions only. This is another data set of the same source.
Test [7] deals with T1, AT1R wildtype coupled to mTurquoise2, P30556.
T1 chain: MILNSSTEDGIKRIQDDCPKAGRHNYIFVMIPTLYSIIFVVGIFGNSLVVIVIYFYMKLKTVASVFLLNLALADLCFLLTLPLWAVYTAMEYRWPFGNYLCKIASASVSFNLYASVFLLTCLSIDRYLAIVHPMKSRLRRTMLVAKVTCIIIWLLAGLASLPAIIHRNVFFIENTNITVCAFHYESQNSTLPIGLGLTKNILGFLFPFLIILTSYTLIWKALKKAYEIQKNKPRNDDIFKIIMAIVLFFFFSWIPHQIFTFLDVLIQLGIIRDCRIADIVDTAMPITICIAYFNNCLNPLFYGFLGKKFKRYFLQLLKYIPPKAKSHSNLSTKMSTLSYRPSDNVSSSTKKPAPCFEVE
Briefly: FRET or BRET; FLIM-FRET: amplitude weighted average fluorescence lifetime of the mTurquoise2 donor (two-exponential fit), live HEK293T cells, plasma membrane regions. Particulars: remark: other sources report otherwise.

In test [8] the target is T1, AT1R wildtype coupled to mTurquoise2, …. Briefly: FRET or BRET; intensity-based FRET (FRET index), live HEK293T cells, 37 °C, confocal microscope; mTurquoise2 donor, YPet acceptor; plasma membrane regions only. The note with it: remark: other sources report otherwise.

Results are given in words; binding and its absence hold for the method and conditions named. In cells and extracts the contact can be indirect. Some results given as binding are weak or reduced against the parent protein; the word gives no strength. For some of these results: Tags and fused reporters may be left off the sequences shown.

As to “AT1R wildtype C-terminally fused to YPet (from UniProt P30556 1-359) (receptor)”, the binding entry in test [1], in test [2], in test [3] and in test [4] was “binds” each time.

For the molecule “AT1R-YPet-MUT1 (S189A, I193A, L197A, I201A, L202A, L205A, F206A) (from UniProt P30556 1-359) (receptor)”, the binding result in test [2] and in test [4] was “binds weakly” throughout.

In the case of “AT1R-YPet-MUT2 (Y54A, F55A, F96A, Y99A, L100A) (from UniProt P30556 1-359) (receptor)”, the binding entry in test [2] and in test [4] was “binds” each time.

For “N-terminal HA-labelled AT1R (angiotensin II receptor type 1) (from UniProt P30556 1-359)”, the binding result in test [5] is “binds”.

B1: Mas1 receptor C-terminally fused to YPet (receptor, UniProt P04201 1-325)
chain: MDGSNVTSFVVEEPTNISTGRNASVGNAHRQIPIVHWVIMSISPVGFVENGILLWFLCFRMRRNPFTVYITHLSIADISLLFCIFILSIDYALDYELSSGHYYTIVTLSVTFLFGYNTGLYLLTAISVERCLSVLYPIWYRCHRPKYQSALVCALLWALSCLVTTMEYVMCIDREEESHSRNDCRAVIIFIAILSFLVFTPLMLVSSTILVVKIRKNTWASHSSKLYIVIMVTIIIFLIFAMPMRLLYLLYYEYWSTFGNLHHISLLFSTINSSANPFIYFFVGSSKKKRFKESLKVVLTRAFKDEMQPRRQKDNCNTVTVETVV
For the molecule B1, the binding result in test [3] and in test [6] was “no binding” throughout.

B2: Mas1 receptor C-terminally fused to YPet, P04201 1-325 (receptor)
chain: B1 chain
As for B2, the binding result in test [7] and in test [8] was “no binding” each time.

For the origin of these results see article PMC11335197.
